Target: the molecule itself
Test: SEC

B1: EccA1 ATPase, wild type (enzyme)
chain: MTDRLASLFESAVSMLPMSEARSLDLFTEITNYDESACDAWIGRIRCGDTDRVTLFRAWYSRRNFGQLSGSVQISMSTLNARIAIGGLYGDITYPVTSPLAITMGFAACEAAQGNYADAMEALEAAPVAGSEHLVAWMKAVVYGAAERWTDVIDQVKSAGKWPDKFLAGAAGVAHGVAAANLALFTEAERRLTEANDSPAGEACARAIAWYLAMARRSQGNESAAVALLEWLQTTHPEPKVAAALKDPSYRLKTTTAEQIASRADPWDPGSVVTDNSGRERLLAEAQAELDRQIGLTRVKNQIERYRAATLMARVRAAKGMKVAQPSKHMIFTGPPGTGKTTIARVVANILAGLGVIAEPKLVETSRKDFVAEYEGQSAVKTAKTIDQALGGVLFIDEAYALVQERDGRTDPFGQEALDTLLARMENDRDRLVVIIAGYSSDIDRLLETNEGLRSRFATRIEFDTYSPEELLEIANVIAAADDSALTAEAAENFLQAAKQLEQRMLRGRRALDVAGNGRYARQLVEASEQCRDMRLAQVLDIDTLDEDRLREINGSDMAEAIAAVHAHLNMRE
stoichiometry N: 6
